From the supplement of paper PMC8728848
The list shows a part of the results.

Columns and labels:
Test in all cases: glycan array binding signal (z-score within array); higher = stronger binding
Conditions in all cases: glycan notation: IUPAC condensed, linker removed
[1] = target: Gal(b1-3)GlcNAc(b1-3)Gal(b1-4)GlcNAc(b1-2)[Gal(b1-3)GlcNAc(b1-3)Gal(b1-4)GlcNAc(b1-6)]Man(a1-6)[Gal(b1-3)GlcNAc(b1-3)Gal(b1-4)GlcNAc(b1-2)Man(a1-3)]Man(b1-4)GlcNAc(b1-4)[Fuc(a1-6)]GlcNAc
Method in brief: (§1)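 The binding signal is a Z-score computed within each array and averaged over linkers. Arrays of the same protein sequence at different concentrations or buffers were also averaged together. Data originate from 3228 arrays in the Consortium for Functional Glycomics database, kept only where the protein sequence was available.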

[2] = target: Gal(b1-3)GlcNAc(b1-3)Gal(b1-4)GlcNAc(b1-3)Gal(b1-4)GlcNAc(b1-2)[Gal(b1-3)GlcNAc(b1-3)Gal(b1-4)GlcNAc(b1-3)Gal(b1-4)GlcNAc(b1-6)]Man(a1-6)[Gal(b1-3)GlcNAc(b1-3)Gal(b1-4)GlcNAc(b1-3)Gal(b1-4)GlcNAc(b1-2)Man(a1-3)]Man(b1-4)GlcNAc(b1-4)[Fuc(a1-6)]GlcNAc
Method in brief: as §1

[3] = target: Gal(b1-3)GlcNAc(b1-3)Gal(b1-4)GlcNAc(b1-6)[Gal(b1-3)GlcNAc(b1-3)]Gal(b1-4)Glc
Method in brief: as §1

[4] = target: Gal(b1-3)GlcNAc(b1-3)Gal(b1-4)[Fuc(a1-3)]GlcNAc
Method in brief: as §1

[5] = target: Gal(b1-3)GlcNAc(b1-3)Gal(b1-4)[Fuc(a1-3)]GlcNAc(b1-6)[Gal(b1-3)GlcNAc(b1-3)]Gal(b1-4)Glc
Method in brief: as §1

[6] = target: Gal(b1-3)GlcNAc(b1-3)GalNAc
Method in brief: as §1

[7] = target: Gal(b1-3)GlcNAc(b1-6)Gal(b1-4)GlcNAc
Method in brief: as §1

[8] = target: Gal(b1-3)GlcNAc(b1-6)GalNAc
Method in brief: as §1

[9] = target: Gal(b1-3)GlcNAc(b1-6)[Gal(b1-3)]GalNAc
Method in brief: as §1

Gal(b1-3)GlcNAc6S = target: Gal(b1-3)GlcNAc6S
Method in brief: as §1

[10] = target: Gal(b1-3)[Fuc(a1-4)]GlcNAc
Method in brief: as §1

[11] = target: Gal(b1-3)[Fuc(a1-4)]GlcNAc(b1-2)Man
Method in brief: as §1

[12] = target: Gal(b1-3)[Fuc(a1-4)]GlcNAc(b1-2)Man(a1-3)[Gal(b1-3)[Fuc(a1-4)]GlcNAc(b1-2)Man(a1-6)]Man(b1-4)GlcNAc(b1-4)[Fuc(a1-6)]GlcNAc
Method in brief: as §1

[13] = target: Gal(b1-3)[Fuc(a1-4)]GlcNAc(b1-3)Gal(b1-3)[Fuc(a1-4)]GlcNAc
Method in brief: as §1

[14] = target: Gal(b1-3)[Fuc(a1-4)]GlcNAc(b1-3)Gal(b1-4)[Fuc(a1-3)]GlcNAc
Method in brief: as §1

[15] = target: Gal(b1-3)[Fuc(a1-4)]GlcNAc(b1-6)GalNAc
Method in brief: as §1

[16] = target: Gal(b1-3)[GlcNAc(b1-6)]GalNAc
Method in brief: as §1

[17] = target: Gal(b1-3)[Neu5Ac(a2-6)]GalNAc
Method in brief: as §1

[18] = target: Gal(b1-3)[Neu5Ac(a2-6)]GlcNAc(b1-4)Gal(b1-4)Glc
Method in brief: as §1

[19] = target: Gal(b1-3)[Neu5Ac(b2-6)]GalNAc
Method in brief: as §1

Gal(b1-4)Gal = target: Gal(b1-4)Gal
Method in brief: as §1

[20] = target: Gal(b1-4)GalNAc(a1-3)[Fuc(a1-2)]Gal(b1-4)GlcNAc
Method in brief: as §1

[21] = target: Gal(b1-4)GalNAc(b1-3)[Fuc(a1-2)]Gal(b1-4)GlcNAc
Method in brief: as §1

Gal(b1-4)Glc = target: Gal(b1-4)Glc
Method in brief: as §1

Gal(b1-4)Glc6S = target: Gal(b1-4)Glc6S
Method in brief: as §1

Gal(b1-4)GlcNAc = target: Gal(b1-4)GlcNAc
Method in brief: as §1

[22] = target: Gal(b1-4)GlcNAc(a1-6)Gal(b1-4)GlcNAc
Method in brief: as §1

Gal(b1-4)GlcNAc(b1-2)Man = target: Gal(b1-4)GlcNAc(b1-2)Man
Method in brief: as §1

[23] = target: Gal(b1-4)GlcNAc(b1-2)Man(a1-3)Man(b1-4)GlcNAc(b1-4)GlcNAc
Method in brief: as §1

[24] = target: Gal(b1-4)GlcNAc(b1-2)Man(a1-3)[Gal(b1-4)GlcNAc(b1-2)Man(a1-6)]Man(b1-4)GlcNAc(b1-4)GlcNAc
Method in brief: as §1

[25] = target: Gal(b1-4)GlcNAc(b1-2)Man(a1-3)[Gal(b1-4)GlcNAc(b1-2)Man(a1-6)]Man(b1-4)GlcNAc(b1-4)[Fuc(a1-6)]GlcNAc
Method in brief: as §1

[26] = target: Gal(b1-4)GlcNAc(b1-2)Man(a1-3)[Gal(b1-4)GlcNAc(b1-2)Man(a1-6)][Gal(b1-4)GlcNAc(b1-4)]Man(b1-4)GlcNAc(b1-4)[Fuc(a1-6)]GlcNAc
Method in brief: as §1

[27] = target: Gal(b1-4)GlcNAc(b1-2)Man(a1-3)[Gal(b1-4)GlcNAc(b1-2)Man(a1-6)][GlcNAc(b1-4)]Man(b1-4)GlcNAc(b1-4)[Fuc(a1-6)]GlcNAc
Method in brief: as §1

[28] = target: Gal(b1-4)GlcNAc(b1-2)Man(a1-3)[GlcNAc(b1-2)Man(a1-6)]Man(b1-4)GlcNAc(b1-4)GlcNAc
Method in brief: as §1

[29] = target: Gal(b1-4)GlcNAc(b1-2)Man(a1-3)[GlcNAc(b1-4)][Gal(b1-4)GlcNAc(b1-2)Man(a1-6)]Man(b1-4)GlcNAc(b1-4)GlcNAc
Method in brief: as §1

[30] = target: Gal(b1-4)GlcNAc(b1-2)Man(a1-3)[Man(a1-6)]Man(b1-4)GlcNAc(b1-4)GlcNAc
Method in brief: as §1

[31] = target: Gal(b1-4)GlcNAc(b1-2)Man(a1-6)Man(b1-4)GlcNAc(b1-4)GlcNAc
Method in brief: as §1

[32] = target: Gal(b1-4)GlcNAc(b1-2)Man(a1-6)[GlcNAc(b1-2)Man(a1-3)]Man(b1-4)GlcNAc(b1-4)GlcNAc
Method in brief: as §1

B1: OGAN (protein)
chain: MVQKESQATLEERESELSSNPAASAGASLEPPAAPAPGEDNPAGAGGAAVAGAAGGARRFLCGVVEGFYGRPWVMEQRKELFRRLQKWELNTYLYAPKDDYKHRMFWREMYSVEEAEQLMTLISAAREYEIEFIYAISPGLDITFSNPKEVSTLKRKLDQVSQFGCRSFALLFNDIDHNMCAADKEVFSSFAHAQVSITNEIYQYLGEPETFLFCPTEYCGTFCYPNVSQSPYLRTVGEKLLPGIEVLWTGPKVVSKEIPVESIEEVSKIIKRAPVIWDNIHANDYDQKRLFLGPYKGRSTELIPRLKGVLTNPNCEFEANYVAIHTLATWYKSNMNGVRKDVVMTDSEDSTVSIQIKLENEGSDEDIETDVLYSPQMALKLALTEWLQEFGVPHQY
In the case of B1, the “glycan array binding signal (z-score)” value [1] is reported as 0.166, the “glycan array binding signal (z-score)” value [2] is reported as -0.005 and the “glycan array binding signal (z-score)” value [3] is reported as -0.074. For the same binder, the “glycan array binding signal (z-score)” value [4] was -0.062, the “glycan array binding signal (z-score)” value [5] was -0.066 and the “glycan array binding signal (z-score)” value [6] was -0.057. For the same binder, the “glycan array binding signal (z-score)” value [7] was -0.078, the “glycan array binding signal (z-score)” value [8] was -0.071 and the “glycan array binding signal (z-score)” value [9] was -0.041. For the same binder, the “glycan array binding signal (z-score)” value (Gal(b1-3)GlcNAc6S) was -0.082, the “glycan array binding signal (z-score)” value [10] was -0.05 and the “glycan array binding signal (z-score)” value [11] was -0.036. For the same binder, the “glycan array binding signal (z-score)” value [12] was -0.008, the “glycan array binding signal (z-score)” value [13] was -0.044 and the “glycan array binding signal (z-score)” value [14] was -0.06. The “glycan array binding signal (z-score)” value [15] was -0.029, the “glycan array binding signal (z-score)” value [16] was -0.065 and the “glycan array binding signal (z-score)” value [17] was -0.047. For the same binder, the “glycan array binding signal (z-score)” value [18] was -0.068, the “glycan array binding signal (z-score)” value [19] was -0.064 and the “glycan array binding signal (z-score)” value (Gal(b1-4)Gal) was -0.085. The “glycan array binding signal (z-score)” value [20] was -0.08, the “glycan array binding signal (z-score)” value [21] was -0.063 and the “glycan array binding signal (z-score)” value (Gal(b1-4)Glc) was -0.066. The “glycan array binding signal (z-score)” value (Gal(b1-4)Glc6S) was -0.034, the “glycan array binding signal (z-score)” value (Gal(b1-4)GlcNAc) was -0.07 and the “glycan array binding signal (z-score)” value [22] was -0.062. For the same binder, the “glycan array binding signal (z-score)” value (Gal(b1-4)GlcNAc(b1-2)Man) was -0.044, the “glycan array binding signal (z-score)” value [23] was -0.067 and the “glycan array binding signal (z-score)” value [24] was -0.076. For the same binder, the “glycan array binding signal (z-score)” value [25] was -0.068, the “glycan array binding signal (z-score)” value [26] was -0.086 and the “glycan array binding signal (z-score)” value [27] was -0.102. The “glycan array binding signal (z-score)” value [28] was -0.059, the “glycan array binding signal (z-score)” value [29] was -0.064 and the “glycan array binding signal (z-score)” value [30] was -0.087. For the same binder, the “glycan array binding signal (z-score)” value [31] was -0.067 and the “glycan array binding signal (z-score)” value [32] was -0.079.
